This passage reports displacement results from PubChem BioAssay AID1240 (Sanford-Burnham Center for Chemical Genomics, 2008).

Values joined by “and” are separate entries in the source; they are usually repeats but may differ in a detail not shown here. Identical values can stand only once. About 800 (1.6%) of roughly 50,000 compounds showed an effect of 50% or more. This is one part of the list.

In this assay the target is Bcl-2-like protein 10 (Homo sapiens) (UniProt Q9HD36). Description: Phenotype converters, Bcl-B/TR3 peptide binding displacement, primary biochemical FP (AID 1240).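 Further: 0% = Bcl-B with tracer peptide and DMSO and 100% = tracer peptide lacking Bcl-B.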 The note with it: GST-Bcl-B / FITC-TR3 peptide fluorescence polarization; stronger effect = higher value; compound at 3.75 mg/L. (In general: Fluorescence polarisation rises when a labelled molecule tumbles more slowly, as on binding a larger partner.)
UniProt Q9HD36, sequence (Q9HD36 whole entry, looked up): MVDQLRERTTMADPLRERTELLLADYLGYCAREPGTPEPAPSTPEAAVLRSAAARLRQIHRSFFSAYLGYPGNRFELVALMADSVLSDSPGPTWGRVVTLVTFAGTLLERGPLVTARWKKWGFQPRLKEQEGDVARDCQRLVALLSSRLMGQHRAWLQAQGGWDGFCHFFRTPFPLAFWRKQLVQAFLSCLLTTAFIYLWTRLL
Consider `O=C(Nc1ccc2c(c1)OCO2)c1cc2n(n1)C(C(F)(F)F)CC(c1ccc(Cl)c(Cl)c1)N2` (centres undefined), for which the displacement is 4.2%.

For `Clc1cccc(-c2nnc(-c3ccc4c(c3)OCO4)o2)c1`, the displacement was determined as 14.4%.

Consider `O=C(CC1(O)C(=O)Nc2ccc(Br)cc21)c1cccc2ccccc12` (centres undefined), for which the displacement amounted to 3.8%.

Take `O=C(Nc1cccc(Cl)c1Cl)c1ccc([N+](=O)[O-])cc1`: the displacement was -11.1%.

With `O=C(N/N=C1\CC2CCC1C2)c1ccc(Cl)cc1Cl` (centres undefined), the displacement is -1.4%.

With `N#Cc1conc1-c1ccc(Br)cc1`, the displacement was found to be 16.4%.

For `C=CCn1c(-c2ccco2)n[nH]c1=S`, the displacement was -10.2%.

`CCOC(=O)c1c(NC(=O)c2ccncc2)sc2c1CC(C)(C)OC2`: the displacement is -5.4%.

As to `CCN(CC)S(=O)(=O)c1ccc(NC(=O)c2ccc(OC)cc2)cc1`, the displacement was -0.9%.

`CCOc1ccc(CSc2ncn[nH]2)cc1`: the displacement turned out to be 5.7%.

For the molecule `Cc1ccc2ccccc2c1CSCC(=O)Nc1ccccc1`, the displacement turned out to be 5.4%.

With `COc1ccc(C2=C/C(=C\c3c(OC)ccc4ccccc34)C(=O)O2)c(OC)c1`, the displacement was determined as 9.6%.

In the case of `Cc1cc(/C=C2\C(=O)NC(=S)N(c3ccc(Br)cc3)C2=O)c(C)n1C`, the displacement is -2.4%.

As for `O=C1CC(c2ccccc2)CC2=C1C(c1cc(F)ccc1F)Nc1ccccc1N2` (centres undefined), the displacement is -2.2%.

Turning to `COc1ccc(N2C(=O)NC(=O)/C(=C/c3cn(CCOc4ccccc4OC)c4ccccc34)C2=O)cc1`, the displacement was 87.6%.

For `Brc1ccc2ncnc(NCCN3CCOCC3)c2c1`, the displacement was -2.5%.

On to `CCCCCCCc1c(C)[nH]n(-c2nnc3c(n2)[nH]c2ccccc23)c1=O`, for which the displacement is -22.6%.

Turning to `COc1ccc(OC)c(C2NC(=S)NC(C)=C2C(=O)Nc2cc(Cl)ccc2OC)c1` (centres undefined), the displacement is 10.1%.

Take `O=C(COc1ccc(Cl)cc1Cl)Nc1ccc(Br)cn1`: the displacement was -2%.

In the case of `O=C(Nc1nc(-c2ccc3ccccc3c2)cs1)c1ccc(Cl)s1`, the displacement is -17.5%.

For the molecule `CC(C)C(C(=O)O)N1C(=O)/C(=C/c2ccccc2O)SC1=S` (centres undefined), the displacement is 0.9%.

As to `Cc1cc(C(=O)Nc2ccc(O)c(C(=O)O)c2)oc1C`, the displacement was -12.1%.

Take `CC1CN(Cc2ccccn2)CCC1=O` (centres undefined): the displacement is -12.2%.

In the case of `CC1(C)CC(CCN(Cc2ccccc2)C(=O)c2ccco2)(c2ccccc2)CCO1` (centres undefined), the displacement came out at 1.1%.

As to `O=C(Nc1cccc(C(F)(F)F)c1)C1CC2CCC1C2` (centres undefined), the displacement was -10.9%.

Consider `O=C1C2CC=CCC2C(=O)N1c1ccc(OCC(O)CN2C(=O)c3ccccc3S2(=O)=O)cc1` (centres undefined), for which the displacement was -6.5%.

With `COCCOC(=O)c1c(C)oc2ccc(OCc3c(F)cccc3Cl)cc12`, the displacement turned out to be 6.9%.

For the molecule `O=C(NCc1ccccn1)C(=O)Nc1ccc(Oc2ccccc2)cc1`, the displacement worked out at 7.1%.

Regarding `O=C(Cc1cccs1)Nc1cccc(/C=C/C(=O)c2ccccc2)c1`, the displacement is 4.4%.

`COC(=O)c1cc(N2C(=O)C3C4C=CC(C5CC45)C3C2=O)ccc1Cl` (centres undefined): the displacement amounted to 10.5%.

Regarding `O=[N+]([O-])c1cccc(-c2nc(-c3ccccc3)c(-c3cccs3)[nH]2)c1`, the displacement was found to be 9.1%.

With `Cc1ccc(C)c(OC2=NS(=O)(=O)c3ccccc32)c1`, the displacement turned out to be 1.7%.

Regarding `Cc1nc(-c2ccccc2)nc2nc(-c3ccccc3)nc(C)c12`, the displacement is -5.5%.

In the case of `O=C(O)Cn1cc(/C=N\Nc2ccc([N+](=O)[O-])cn2)c2ccccc21`, the displacement was -10.8%.

For the molecule `Cc1cn([C@H]2C[C@@H](O)[C@@H](CO)O2)c(=O)n(C)c1=O`, the displacement is -6%.

Take `COc1ccc(/C=C2\SC(=O)N(c3cccc(C)c3)C2=O)cc1`: the displacement is 17.7%.

Regarding `COc1ccccc1N1CCN(C(=O)c2ccc(I)cc2)CC1`, the displacement turned out to be 2.2%.

Regarding `CCCCOC(=O)c1ccc(NC(=O)c2c(Cl)ccc(Cl)c2OC)cc1`, the displacement was -2.2%.

As for `CN(C1=NC(=O)/C(=C\C(Cl)=C\c2ccc([N+](=O)[O-])cc2)S1)c1ccc(O)cc1`, the displacement is 15.5%.

For `NC(=O)c1c(-c2ccc(Cl)cc2)csc1N`, the displacement is -11.9%.

With `CCCNC(=O)c1nn2c(C(F)(F)F)cc(-c3ccccc3)nc2c1Cl`, the displacement is -5.4%.

For the molecule `CCOC(=O)c1cnn2c(C(F)(F)F)cc(-c3ccc(OC)c(OC)c3)nc12`, the displacement is 3.7%.

On to `O=C1CC(c2ccccc2)CC2=C1C(c1ccsc1)Nc1ccccc1N2` (centres undefined), for which the displacement came to 7%.

With `O=C1c2cccc3cccc(c23)C(=O)N1CCS(=O)(=O)OCC(F)(F)C(F)F`, the displacement worked out at 7.3%.

As for `CC(=O)C1=C(O)C(=O)N(CCCC(=O)O)C1c1ccc(I)cc1` (centres undefined), the displacement is -6.7%.

In the case of `CC1=C(C(=O)c2ccccc2)C(c2ccc(F)cc2)NC(=O)N1` (centres undefined), the displacement stood at 0%.

Regarding `CCN(CC)c1ccc(N2C(=O)/C(=C/c3ccc4c(c3)OCO4)SC2=S)cc1`, the displacement amounted to 15%.

With `CCN1CCn2c3c(c4cc(Br)ccc42)CCCC31` (centres undefined), the displacement was -10.2% and -9.8%.

On to `CCn1ccnc1C(O)(c1ccccc1)c1ccccc1`, for which the displacement was -13.5%.

Turning to `CCOC(=O)C1=C(O)/C(=C/c2cccc([N+](=O)[O-])c2)N=C1C`, the displacement amounted to 129%.

Regarding `C=CCNS(=O)(=O)c1ccc(N2C(=O)c3ccccc3C2=O)cc1`, the displacement was found to be 10.9%.

Regarding `O=C1N/C(=N\N=C\c2ccccc2O)SC1Cc1cccc(C(F)(F)F)c1` (centres undefined), the displacement was found to be 2.3%.

On to `CCCC(Nc1ccccn1)n1nnc2ccccc21` (centres undefined), for which the displacement came out at 7.6%.

Consider `COc1ccc(/C=C/C(=O)c2ccc(Cl)cc2)cc1[N+](=O)[O-]`, for which the displacement amounted to 1.5%.

For the molecule `Cc1ccc(-c2nc(-c3cccnc3)no2)cc1[N+](=O)[O-]`, the displacement amounted to 21.4%.

As to `Cc1ccc(S(=O)(=O)/N=C(\N)Nc2nc(C)c3ccccc3n2)cc1`, the displacement worked out at 10.1%.

As to `CC(=O)Nc1c(Br)cc(C23CC4CC(CC(C4)C2)C3)cc1Br`, the displacement was -14.5%.

On to `Oc1ccc(C2Nc3ccc4ccccc4c3C3C=CCC32)cc1` (centres undefined), for which the displacement was 40.2%.

On to `CN1CCN(Cn2c(O)c(N=NC(=O)COc3ccc(Cl)cc3)c3ccccc32)CC1`, for which the displacement is -8.1%.

`CCC1CCc2c(sc(NC(=O)c3ccc(Br)o3)c2C(=O)OC)C1` (centres undefined): the displacement is -64.2%.

In the case of `O=C1C2C3C=CC(C3=C3C4CC5CC(C4)CC3C5)C2C(=O)N1c1cc(Cl)cc(Cl)c1` (centres undefined), the displacement turned out to be 0.6%.

Take `Cc1onc(-c2c(Cl)cccc2Cl)c1C(=O)Nc1ccc(N(C)C)cc1`: the displacement came to 12.1%.

With `Cc1ccc(C(C)C)c(OCCNC(=O)c2cc(F)c(F)cc2Cl)c1`, the displacement was -2.5%.

In the case of `CCc1ccccc1NC(=O)c1nn2c(c1Cl)NC(c1cccs1)CC2C(F)(F)F` (centres undefined), the displacement was determined as 0.5%.

Turning to `O=C(CC1S/C(=N\N=C\c2cccs2)NC1=O)Nc1ccccc1C(F)(F)F` (centres undefined), the displacement was -17.9%.

`CCOc1cc(C(=O)Nc2sc(C)c(C)c2C(=O)OC)cc(OCC)c1OCC`: the displacement is -4.9%.

As to `O=C(NCc1ccccn1)C(=O)N/N=C/c1ccc(Cl)cc1`, the displacement is -2.9%.

`COc1cc(/C=C2/C(=O)NN(c3ccc(F)c(Cl)c3)C2=O)ccc1OC(C)=O`: the displacement came out at 7.1%.

Consider `COc1ccc(N(CC(=O)NCC2CCCO2)S(=O)(=O)c2ccc(OC)c(OC)c2)cc1` (centres undefined), for which the displacement is 13.6%.
